Laboratory results taken from publication PMC9388626, “STUB1 is an intracellular checkpoint for interferon gamma sensing” (Scientific Reports, 2022).
No constants are given. Whether binding was seen depends on the method and setting. For part of these data: In cells and extracts the contact can be indirect. Some binding calls cover weakened binding; strength is not graded here. For part of these data: Tags and fused reporters may be left off the sequences shown. One block for each molecule: values may come before it.

Protein sequences, listed by entry. Tags and fused reporters are not part of them. Residues count along the entry.
UniProt Q9WUD1: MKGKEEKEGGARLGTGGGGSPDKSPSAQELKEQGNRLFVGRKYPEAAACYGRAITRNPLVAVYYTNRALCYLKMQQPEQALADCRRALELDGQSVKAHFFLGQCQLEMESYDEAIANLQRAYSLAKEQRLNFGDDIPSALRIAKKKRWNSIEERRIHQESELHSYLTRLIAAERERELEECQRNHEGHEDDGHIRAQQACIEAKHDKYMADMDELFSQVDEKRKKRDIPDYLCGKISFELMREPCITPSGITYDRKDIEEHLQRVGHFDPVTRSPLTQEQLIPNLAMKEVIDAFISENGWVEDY
UniProt Q9UNE7, residues 25-153: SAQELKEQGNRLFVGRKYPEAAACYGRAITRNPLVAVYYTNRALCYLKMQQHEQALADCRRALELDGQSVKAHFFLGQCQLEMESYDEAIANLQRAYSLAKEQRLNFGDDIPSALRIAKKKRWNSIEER

Key:
[1] = molecular target: T1, FLAG-mCherry2-GGSGGS-SIWWHR; test: co-IP; anti-FLAG magnetic beads, lysate of B16-F10 cells stably expressing FLAG-mCherry2-peptide; room temperature 4 h; blot for STUB1 and FLAG
T1 sequence: GGSGGSSIWWHR

[2] = molecular target: T2, FLAG-mCherry2-GGSGGS-SIWWPD; test: as above
T2 sequence: GGSGGSSIWWPD

[3] = molecular target: STUB1 (endogenous, B16-F10 cells) (mouse (endogenous in B16-F10)) (UniProt Q9WUD1); test: co-IP; as the anti-FLAG co-IP from B16-F10 lysate, with synthetic peptide (SIWWPD) added into the co-IP mixture for competitive inhibition; only the binder purified
[4] = molecular target: Recombinant STUB1 protein, spanning aa25-aa153 (UniProt Q9UNE7); test: fluorescence polarisation; competitive; 15 nM tracer 5-FAM-…, 1 µM STUB1 aa25-aa153, peptide of interest 5 nM to 100 µM; room temperature; PBS pH 7.4, 0.01% v/v Tween 20; 30 min incubation; both purified
[5] = molecular target: Recombinant STUB1 protein, spanning aa25-aa153 (UniProt Q9UNE7); test: ITC; peptide (200 µM) injected into STUB1 aa25-aa153 (20 µM); 25 °C; PBS pH 7.4, 0.5 mM TCEP, 2% DMSO; one-site binding model; both purified
[6] = molecular target: Recombinant STUB1 protein, spanning aa25-aa153 (UniProt Q9UNE7); test: thermal shift assay; SYPRO Orange; 100 µM peptide, 10 µM STUB1 aa25-aa153; heated from 25 to 95 °C in 0.5 °C increments; both purified

- binding [1]: no binding
- binding [2]: binds
Molecule: STUB1 (endogenous, B16-F10 cells) (from UniProt Q9WUD1 1-304)

- binding [3]: binds
Molecule: SIWWPD (N-acetylation; free C-terminal carboxylic acid) [synthetic inhibitory peptide SIWWPD]

- binding [4]: no binding (tested: IC50 > 100 µM)
- binding [5]: no binding (tested: KD > 10 µM)
- binding [6]: no binding (tested: 100 µM peptide)
Molecule: SIWWHR (N-acetylation; free C-terminal carboxylic acid) [synthetic control peptide SIWWHR]
